Reference: ChEMBL document CHEMBL4888484, “Replenishing the malaria drug discovery pipeline: Screening and hit evaluation of the MMV Hit Generation Library 1 (HGL1) against asexual blood stage Plasmodium falciparum ,using a nano luciferase reporter read-out” (2022)
Hit rate of the full screen: of about 150,000 compounds, about 540 (0.36%) showed an effect of 50% or more. Some of the results follow.

What follows are compounds tested on Plasmodium falciparum (assay: Primary screen in NF54 nanoGlo assay, in single point, at 2uM, 72h; a lower Z score goes with more inhibition). Details: timepoint 72 hour.
Assay type: functional, Erythrocyte

Row | SMILES | % Inhibition | Z score
1 | Cc1nc(CC(=O)Nc2ccc3nc(C)sc3c2)cs1 | -4% | 0.56
2 | O=C1Nc2ccccc2C[C@H]1c1ccccc1 | -5% | 0.73
3 | COC[C@]1(S(=O)(=O)NCc2cn(C3CCC3)nn2)C[C@@H]1C | 0% | 0.02
4 | CCCC[C@@H](C(=O)Nc1cc(C)on1)N1CCNC(=O)C1 | 12% | -1.53
5 | CNC(=O)CN(C)S(=O)(=O)c1ccc(C)c(F)c1 | -6% | 0.57
6 | CC(C)Cc1cc(C(=O)OCC(F)F)[nH]n1 | 5% | -0.62
7 | CN(C)S(=O)(=O)c1ccc(-c2[nH]ncc2C(=O)N2CCCC2)o1 | -6% | 0.68
8 | CCn1cc(CC(=O)N2CCN[C@H](c3ccc(OC)cc3)C2)nn1 | -10% | 1.71
9 | Cc1noc(C)c1CN1C(=O)[C@@H]2CC[C@H]1CN(Cc1noc(C3CC3)n1)C2 | 5% | -1
10 | C[C@](O)(CNC(=O)C1CCC1)c1cc2ccccc2s1 | -9% | 1.17
11 | CC1CCCC(C)N1C(=O)CN(C)CCO (stereo unspecified) | -6% | 0.8
12 | CC[C@]1(c2ccc(C)cc2)CC(=O)N(Cc2nnc(C)n2C)C1=O | -6% | 0.62
13 | CC(C)=CCCC(C)NC1CCc2[nH]ncc2C1 (stereo unspecified) | 12% | -1.61
14 | Cc1nc(CS(=O)(=O)NCCc2cnoc2)cs1 | -20% | 1.98
15 | O=C(Nc1nc(C2CC2)no1)C1CCCCC1 | 6% | -0.81
16 | O=C(COc1c(F)cc(F)cc1Br)NCC(F)(F)F | -12% | 1.07
17 | CC(C)(C)CC(NC(=O)N1CCOCC1c1nc[nH]n1)C(F)(F)F (stereo unspecified) | -4% | 0.86
18 | C[C@]1(C(=O)N2CCOc3cccc(F)c3C2)CCC(=O)NC1 | -10% | 1.43
19 | Cc1ccc(-c2nc(CCCN3CCCCC3=O)n(-c3ccccn3)n2)o1 | -13% | 1.75
20 | O=C(COCC1CC1)Nc1nc(CN2CCCCCC2)cs1 | -2% | 0.34
21 | Cc1ccc(S(=O)(=O)N2CCN(C(=O)c3cc(C4CC4)nc4c3c(C)nn4C(C)C)CC2)cc1 | 30% | 0.07
22 | COc1ccc(-c2csc(C)n2)cc1CC(=O)N(C)[C@H]1CCS(=O)(=O)C1 | -7% | 1.23

Row | SMILES | % Inhibition | Z score
23 | COC(=O)c1ccc(N2CCN(C(=O)Cc3sc(C)nc3C)CC2)cc1 | -1% | 0.13
24 | COCCO[C@H]1CN(C2CCN(C(=O)c3cc(C)n(C)n3)CC2)C12CCCCC2 | -10% | 1.89
25 | COc1cc2nc(NC(=O)c3cccn3C)[nH]c2cc1OC | -5% | 0.6
26 | CC[C@@H](C(=O)Nc1ccc(C)cc1)N1CCC(c2ccn(C)n2)CC1 | 0% | 0.04
27 | O=C(Nc1cccc(Cl)c1)NC1CC2CCC1C2 (stereo unspecified) | -15% | 1.71
28 | CO[C@H]1C[C@H](C(=O)N2CCCC2(C)C)N(S(C)(=O)=O)C1 | -12% | 1.9
29 | CC(C)C12OC3C(O)C4CC3C1C4C(=O)N2c1ccc(Br)cc1 (stereo unspecified) | -9% | 1.53
30 | CC(=O)c1ccc(Nc2cc(C(=O)N3CCCC3)nc3ccc(C)cc23)cc1 | -2% | 0.21
31 | Cc1cc(C)n(CCCNc2cc3nncn3c(N)n2)n1 | 1% | -0.13
32 | Cn1cncc1-c1nnc([C@H]2CCN(C(=O)c3ccccc3)C2)o1 | -14% | 2.58
33 | O=C(c1cccc(C2OCCO2)c1)N(CCC(F)(F)F)C1CCC1 | -3% | 0.41
34 | CC1CCC(NC(=O)NCC(CO)Cc2ccccn2)C(C)C1 (stereo unspecified) | -13% | 1.54
35 | Cc1ccccc1CN(C(=O)C1CCCC1)c1ccc(CC(=O)NCC(C)C)cc1 | 0% | 0.02
36 | CN(C)S(=O)(=O)CCN1CCC(c2nc3c(s2)CCCC3)CC1 | -8% | 1.52
37 | CC(C)CC1CC(NC(=O)CO)CCO1 (stereo unspecified) | -2% | 0.45
38 | COc1ccc(-c2noc(NCCc3c[nH]c4ccccc34)n2)cc1OC | -1% | 0.23
39 | COC(C)(C)CCC[C@H](C)CCNCC(C)(C)N1CCOCC1 | 1% | -0.18
40 | OC[C@H](NC1CCC2(CC1)CC2(F)F)c1ccc(F)cc1 (stereo partly specified) | -6% | 0.96
41 | COCc1ccc(C(=O)N[C@@H]2COCC[C@@H]2OCc2c(C)noc2C)o1 | -7% | 1.12
42 | Cc1cccc(N(Cc2ccc(C(=O)N3CCOCC3)o2)c2nc(-c3ccc(Cl)cc3)cs2)c1 | -6% | 0.89
43 | Cc1cccc(-c2ncc(C(=O)N3CCCCCCC3)c(O)n2)c1 | 0% | -0.06
